# The supplement of paper PMC10338343
# ± gives the standard deviation. The full ranking holds about 5,500 sequences; the median of “pre-steady-state target cleavage rate” is about 0.1, and the highest 2% start at about 0.64. This is a selection; strong and weak results do not stand in their true shares.
# Tested on: MIWI (PIWIL1) piRISC loaded with piRNA #2 (30 nt)
# Assay: pre-steady-state target cleavage rate (min^-1); MIWI and MILI are mouse PIWI proteins and EfPiwi is from a freshwater sponge; tags in brackets are library labels; higher = faster piRNA-guided slicing of the target
# Details: guide: piRNA #2 5'p-UUAGGUAACCCAGUAGAUCCAGAGGAAUUC; auxiliary factor: 500 nM mouse GTSF1
# In short: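 Three pooled Cleave-'n-Seq trials supplied the data, with k3 capped at 0.0001 min^-1. In each, […] transcribed, DNA-blocked target RNA library and 1 nM active affinity-purified piRISC with one synthetic guide reacted in HEPES–potassium acetate buffer at 33 °C for 0–8 or 0–960 min, with or without 500 nM GTSF1 partner protein. Uncleaved targets were sequenced and normalised to depth and to weakly complementary targets. A burst-and-steady-state fit provided the pre-steady-state cleavage rate.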
row,Sequence,pre-steady-state target cleavage rate
1,CUUAAGGACUGGAUCUACUGGGUUUCCUAA,0.0405 ± 0.032
2,CUAUUCCUCUGGAUCUUCUGGGUUACGUAA,0.379 ± 0.042
3,CUAUUCCUCUGCGAUCUACUGGGUUACCUAA,0.428 ± 0.042
4,CUUUUCCUCUGGAUCUACUCGGUAACCUAA,0.024 ± 0.011
5,GAAUUCCUCUGGAUCUACAGGGUUAGCUAA,0.171 ± 0.019
6,GAAUUCGUCUGGAUCUACUGGGUUACGUAA,0.575 ± 0.087
7,CUUAAGGACUGGAUGUACUGGGUUACGUAA,0.193 ± 0.052
8,CUUAAGGUCUGGAUCUACUGGGUUACGAAA,0.0873 ± 0.014
9,CUUAAGGAGUGGAUCUACUGGGUUCACCUAA,0.0595 ± 0.01
10,CAAUACCUCUGGAUCUACAGGGUUACCUAA,0.219 ± 0.026
11,CUAUUCCUGCUGGAUCUACUGGGUUACCUAA,0.506 ± 0.043
12,CUUUUCCUCUGGAUCUACUGGGUAACCUUA,0.163 ± 0.036
13,GUAUUCCUCUGGAUCUAGUGGGUUACCUAA,0.025 ± 0.0079
14,CUUAACCUCUGGAUCUACUGGGUCACCUAA,0.0652 ± 0.011
15,CUUAAGCUCUGGAACUACUGGGUUAGCUAA,0.12 ± 0.018
16,CUAUUCCUCUGCAUCUACUGGGUUAGCUAA,0.277 ± 0.029
17,CUUUUCCUUGGAUCUACUGGGUUACCUAA,0.429 ± 0.031
18,CUUAAGGACAGGUUCUACUGGGUUACCUAA,0.0257 ± 0.017
19,CUUAAGGUCUGGAUCUACUGGGUAACCUUA,0.0213 ± 0.0067
20,CUAUUCCUCAGGAUCUACUGGGUUUCCUAA,0.41 ± 0.055
21,CUUUUCCACUGGAUCAACUGGGUUACCUAA,0.429 ± 0.042
22,CUUUUCCUCUGGAUCAACUGGGUAACCUAA,0.122 ± 0.02
23,CUUAAGCUCUGGAUCUAGUGGGUAACCUAA,0.0215 ± 0.0067
24,CUUAUCCUCUGGAUCUAGUGGGUUUCCUAA,0.0946 ± 0.023

row,Sequence,pre-steady-state target cleavage rate
1,GAAUUCCUCAGGAUCAACUGGGUUACCUAA,0.521 ± 0.048
2,CUUAACCUGUGGAUCUACUGGGUAACCUAA,0.0751 ± 0.013
3,CUUAUCCUCUGCAUCUACUGGGUUACCUUA,0.195 ± 0.033
4,CUUAAGCUCUGGAUCUACUGGCUAACCUAA,0.00565 ± 0.0046
5,CUUAAGGACUGGAUCUACUCGGUUACGUAA,0.0478 ± 0.024
6,CAAUUCCUCUGGUUCUACUGGGUUUCCUAA,0.951 ± 0.36
7,CUAUUCCUCUGGAUCUACUGGGUUACUUAA,0.57 ± 0.045
8,CUUAUCCUGACGAUCUACUGGGUUACCUAA,0.0767 ± 0.014
9,CUUAUCCUCUGCAACUACUGGGUUACCUAA,0.239 ± 0.021
10,CUAUUCCUCUGGAUCUACUGGGUUAGCAAA,0.183 ± 0.044
11,CUUAAGGUCUGGUUCUACUGGGUUUCCUAA,0.0244 ± 0.0059
12,CUUAAGGACAGGAUCAACUGGGUUACCUAA,0.0169 ± 0.0069
13,GAAUUCCUCUGGAUCUACUGCGUUACCAAA,0.277 ± 0.059
14,CUUAAGCUCUGGAUCUACUGGGUUACCUAA [g2:g24:cont:t1A],0.112 ± 0.026
15,CAAUUGCUCUCGAUCUACUGGGUUACCUAA,0.522 ± 0.043
16,GAAAUGCUCUGGAUCUACUGGGUUACCUAA,0.0468 ± 0.018
17,CUUAAGGUCUGGAUCUACUGCGUUACGUAA,0.311 ± 0.045
18,CUUAAGGAGUGGAUGCUACUGGGUUACCUAA,0.00794 ± 0.0076
19,CUUAACCUGUGGAUCUACUGGCUUACCUAA,0.0457 ± 0.013
20,CUUUUCCUCUGCAUCUACUGGGUUACCAAA,0.254 ± 0.043
21,GAAUUCGUCUGGAUCUACUGGCUUACCUAA,0.111 ± 0.037
22,CUAUUCCUCUGGUUCUACAGGGUUACCUAA,0.355 ± 0.032
23,CUUAUCCUGUGGAUCUACUGCGUUACCUAA,0.33 ± 0.066
24,CUUAAGGUCUGGAUCUACAGCGUUACCUAA,0.0335 ± 0.0059

row,Sequence,pre-steady-state target cleavage rate
1,CUUAACCACUGGAUCUUCUGGGUUACCUAA,0.277 ± 0.032
2,CUUAUCCUCUGGAACUUCUGGGUUACCUAA,0.288 ± 0.028
3,CUAUACCUCUGGAUCUACUCGGUUACCUAA,0.105 ± 0.013
4,CUUAACCUCUUGAUCUACUGGGUUACCUAA,0.421 ± 0.026
5,GAAUUCCUGUGGAUCUACAGGGUUACCUAA,0.428 ± 0.026
6,CUUAACCACUGGAACUACUGGGUUACCUAA,0.292 ± 0.025
7,CUUUUCGUCUGGAUCUACUCGGUUACCUAA,0.0353 ± 0.018
8,GAAUUCCUCUCGAUCUACUGGGUUAGCUAA,0.237 ± 0.052
9,CUUUUCCACUGGAUCUACUGGGUUACGUAA,0.505 ± 0.053
10,CUAUUACUCUGGAUCUACUGGGUUACCUAA,0.107 ± 0.025
11,CAAUUCCUCUGGAUCUUCUGGGUUACCAAA,0.302 ± 0.065
12,GAAUUCCUCAGGAUCUAGUGGGUUACCUAA,0.264 ± 0.029
13,CUUAAGCUCUGGAUGUACUGGCUUACCUAA,0.0718 ± 0.014
14,CUUAUCCUCUGGAACUACUGGGUUAGCUAA,0.223 ± 0.027
15,CUUAACCUCUGGAUCUACUGGGUUACCUAG [g2:g25:cont:t1G],0.23 ± 0.054
16,GAAUUCGUCUGGAUCAACUGGGUUACCUAA,0.236 ± 0.041
17,CUUAAGGAGUGGAUCUACUGGGUCACCUAA,0.094 ± 0.018
18,CAAUUCCUCUGGUUCUUCUGGGUUACCUAA,0.491 ± 0.054
19,CUAUUCCUCUGGAUCUACUGGUUACCUAA,0.104 ± 0.026
20,CUUAAGGAGACCAUCUACUCGGUUAGCUAA,< 0.0001
21,CUAUUCCUCUGGAACUACUGGGUUACCUUA,0.238 ± 0.037
22,CUUAUCCUCUGGAUCUACUGGGAUACCUUA,0.291 ± 0.066
23,CUUAACGCUCUGGAUCUACUGGGUUACCUAA,0.091 ± 0.011
